Measured values published in paper PMC4336329 (PLoS ONE, 2015).
Among all 310,000 compounds or so, about 14,000 (4.5%) showed an effect of 50% or more. Effects have a minus sign here. This is one part of the list.

Biological target: human ether-à-go-go-related gene (hERG) potassium channel (human, UniProt Q12809)
Assay: primary screen, population patch clamp on CHO cells stably expressing hERG
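Further: peak tail current of the secondary pulse compared with the same well before compound.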

Chain of human ether-à-go-go-related gene (hERG) potassium channel (Q12809 whole entry, looked up): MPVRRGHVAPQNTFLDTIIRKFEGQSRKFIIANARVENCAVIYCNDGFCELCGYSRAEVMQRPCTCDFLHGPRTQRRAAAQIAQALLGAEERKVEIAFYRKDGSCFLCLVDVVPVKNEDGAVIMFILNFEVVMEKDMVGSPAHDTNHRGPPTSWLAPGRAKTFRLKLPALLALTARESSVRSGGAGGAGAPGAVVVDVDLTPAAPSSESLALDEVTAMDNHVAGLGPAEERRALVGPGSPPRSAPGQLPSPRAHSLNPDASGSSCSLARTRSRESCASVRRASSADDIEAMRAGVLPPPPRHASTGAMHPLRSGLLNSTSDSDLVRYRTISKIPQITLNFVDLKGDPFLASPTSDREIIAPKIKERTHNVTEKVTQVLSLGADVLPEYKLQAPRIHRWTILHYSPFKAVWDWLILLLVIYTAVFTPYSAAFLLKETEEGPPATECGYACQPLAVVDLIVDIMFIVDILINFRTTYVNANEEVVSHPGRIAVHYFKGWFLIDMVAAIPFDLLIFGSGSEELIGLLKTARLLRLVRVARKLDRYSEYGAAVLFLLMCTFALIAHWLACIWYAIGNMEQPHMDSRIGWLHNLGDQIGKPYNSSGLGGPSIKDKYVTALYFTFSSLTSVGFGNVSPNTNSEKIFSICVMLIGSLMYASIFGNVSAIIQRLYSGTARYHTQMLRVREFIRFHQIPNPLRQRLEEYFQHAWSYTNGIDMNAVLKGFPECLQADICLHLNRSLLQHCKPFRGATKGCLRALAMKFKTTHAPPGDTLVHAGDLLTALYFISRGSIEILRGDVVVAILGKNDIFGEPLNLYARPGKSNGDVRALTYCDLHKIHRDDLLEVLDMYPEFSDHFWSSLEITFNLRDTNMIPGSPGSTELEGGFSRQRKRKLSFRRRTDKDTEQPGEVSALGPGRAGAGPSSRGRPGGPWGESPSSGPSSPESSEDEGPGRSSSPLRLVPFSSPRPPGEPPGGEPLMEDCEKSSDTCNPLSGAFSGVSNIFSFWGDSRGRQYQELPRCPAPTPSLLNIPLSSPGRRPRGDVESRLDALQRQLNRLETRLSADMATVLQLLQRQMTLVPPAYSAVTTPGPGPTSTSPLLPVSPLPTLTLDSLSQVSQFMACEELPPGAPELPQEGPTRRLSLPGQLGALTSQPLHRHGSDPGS

Structure (SMILES)	hERG current change (%, negative = inhibition) at 10uM [%]
Oc1c(CN2CCc3ccccc3C2)cc(Cl)c2cccnc12	-18
Cc1cccc(NC(=O)c2ccccc2-c2ccccc2)c1	-13.2
C[C@H](N)CN1CCc2ccc(Br)cc21.O=C(O)/C=C/C(=O)O	-8.16
Cc1ccnc(N2C(=O)c3ccccc3C2=O)c1	19.1
O=S(=O)(Cc1ccco1)Cc1nc(-c2ccc(Cl)cc2)cs1	-2.75
O=C(Nc1nncs1)c1cc2c(s1)CCC2	27.4
CCN(CC(=O)Nc1ccc2c(c1)OCCO2)C(=O)CC1CCCC1	0.281
COc1ccccc1C(=O)NCC(=O)OC(C)C(=O)NC1CCCCC1C (centres unmarked)	-1.56
COc1ccccc1C1CCN(c2ccc([N+](=O)[O-])cn2)CC1	-5.84
O=C(COc1ncnc2cc([N+](=O)[O-])ccc12)NC1CCCCC1	-2.76
COc1ccc(NC(=O)c2ccco2)cc1NC(=O)c1ccccc1F	25.6
CNc1nc(N)c([N+](=O)[O-])c(NCCO)n1	13.5
CCOC(=O)c1c(C)oc2cc(Br)c(OC)cc12	4.28
CSc1ccccc1NC(=O)CNCCCN1CCOCC1.O=C(O)C(=O)O	4.74
C/C(CC(=O)NCc1ccco1)=N\NC(=O)Cc1ccc(-c2ccccc2)cc1	5.55
Cn1c(CN2CCN(C(=O)c3ccccc3)CC2)nc2cc([N+](=O)[O-])ccc21	-67.3
COc1ccc(NC2=C(NCCO)C(=O)c3ccccc3C2=O)cc1	3.51
CC(C)(C)C1CCC(C(=O)Nc2ccccc2)CC1 (centres unmarked)	-1.77
CC(C)(C)NCc1cccn1-c1sc2c(c1C#N)CCCC2	-13.4

Structure (SMILES)	hERG current change (%, negative = inhibition) at 10uM [%]
COCCCOc1ccnc(CS(=O)c2nc3ccccc3[n-]2)c1C.[Na+] (centres unmarked)	-1.59
CCCSc1nc(O)c(C(c2ccc(OC)c(O)c2)c2c(O)nc(SCCC)n(C)c2=O)c(=O)n1C	-24.6
CC(C)Nc1ncnc2c1cnn2Cc1ccc(Cl)cc1	-18.5
N#CCSc1nnc(C2CCCCC2)n1Cc1ccccc1	-11.6
N#C/C(=C\c1ccc(OCc2ccccc2)cc1)C(N)=O	-11.1
O=c1c2cc(NC(=S)NC3CCCCC3)ccc2nc2n1CCCCC2	-70.2
CCN(C(=O)Cn1cnc2ccccc2c1=O)C1CCS(=O)(=O)C1 (centres unmarked)	3.34
Cc1nc([N+](=O)[O-])cn1CC(O)c1ccccc1 (centres unmarked)	10.2
CCOC(=O)c1cnn(C)c1NC(=O)c1ccc(Cl)cc1Cl	-24.5
CCOc1ccccc1NC(=O)C(NCCN(C)C)c1ccccc1.O=C(O)C(=O)O (centres unmarked)	-76.4
O=C(Cn1c2c(c(-c3ccccc3)cc1=O)CCCC2)N1CCCCCC1	-0.417
Cc1ccc(S(=O)(=O)N(C)CC(=O)NCC(c2ccc(F)cc2)N2CCOCC2)cc1 (centres unmarked)	-27
Cc1cccc(C(=S)N2CCOCC2)n1	5.42
Oc1ccc(Cl)cc1CN1CCN(Cc2ccccc2)CC1	-35.6
COc1ccccc1CC(=O)Nc1ccc(S(=O)(=O)N2CCN(C)CC2)cc1	14.4
COc1ccc(Br)cc1S(=O)(=O)NCCN1CCOCC1	11.9
Cn1c(SCc2cnc(-c3ccccc3)s2)nnc1C1COc2ccccc2O1 (centres unmarked)	-1.06
COCCN(C(=O)c1ccc(NC2CC2)c([N+](=O)[O-])c1)c1c(N)n(CC(C)C)c(=O)[nH]c1=O	-5.42
COc1ccc(OCC(=O)Nc2cc(NC(=O)c3ccco3)ccc2OC)cc1	5.23

Structure (SMILES)	hERG current change (%, negative = inhibition) at 10uM [%]
Cn1nnc2cc(C(=O)NC(C)(C)C)ccc21	3.28
COc1cccc(N2CCN(c3ccc4nnc(CCC(=O)N5CCN(C)CC5)n4n3)CC2)c1	-1.62
CCC(C)c1ccc(NC(=S)NCc2cccnc2)cc1 (centres unmarked)	-18.9
Br.Oc1ccc(C2CNCCc3c2cc(O)c(O)c3Cl)cc1 (centres unmarked)	-3.12
Cc1ccc(-n2nc3c(=O)n(CCCC(=O)NCc4ccccc4Cl)nc(C)c3c2C)cc1	-5.89
CCCc1cc(=O)oc2cc(OCC(=O)NCCCn3ccnc3)c(Cl)cc12	-72.3
Cc1ccc(C(=O)NCc2ccc3c(c2)OCO3)cc1N1CCCC1=O	-3.82
CC1Cc2nc(SCC(N)=O)n(C)c(=O)c2S1 (centres unmarked)	-9.86
COC(=O)c1cccc(NC(=O)C2C3CCC(C3)C2C(=O)O)c1 (centres unmarked)	-10
CN(C)S(=O)(=O)c1cccc(C(=O)NC2CCSc3ccccc32)c1 (centres unmarked)	-5.74
Cc1ccc(/C=N/n2c(C3CCCCC3)n[nH]c2=S)o1	12.1
Fc1ccccc1NC(=S)NN(Cc1ccccc1)c1ccccc1	-13.9
Cc1ccc(OCC(=O)Nc2cc(-c3nn4c(C)nnc4s3)ccc2C)cc1	-24.7
Cc1cccnc1NC(=O)C1CCCN1S(=O)(=O)c1ccc(Cl)cc1 (centres unmarked)	-1.03
Cc1onc(-c2ccccc2)c1C(=O)Nc1ccccc1N1CCOCC1	-33.2
O=S1(=O)N=C(N2CCOCC2)c2ccccc21	-3.93
COc1cccc(N2C(=O)CC(NNc3nc4ccccc4s3)C2=O)c1 (centres unmarked)	-1.73
C=C1[C@H]2CC[C@H]3[C@]4(C)C[C@H](O[C@H]5O[C@H](CO)[C@@H](OS(=O)(=O)[O-])[C@H](OS(=O)(=O)[O-])[C@H]5OC(=O)CC(C)C)C[C@@H](C(=O)O)[C@H]4CC[C@]3(C2)[C@H]1O.[K+]	13.4
